# Reference: the supplement of paper PMC11417369
# This is one part of the list.
# System: PfAP2-HC AP2 domain (GST-tagged)
# Test: gcPBM binding intensity (ln(normalized median fluorescence intensity)); higher = stronger DNA binding
# In short: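 After 1 h on an Agilent 4 × 180k array of primer-extended double-stranded 36-bp intergenic genomic probes and negative controls, bound GST-tagged P. falciparum DNA-binding domains were detected with Alexa488 anti-GST antibody and scanned at 488 nm. The domains had been expressed in E. coli, and binding took place in 1× PBS with 1% milk, 0.2 mg/ml BSA, 0.5% salmon testes DNA and 0.03% Triton X-100. Binding intensity is the highest Masliner-normalised natural-log median intensity across replicate spots of either probe orientation.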
row,Sequence,gcPBM binding intensity (ln)
1,ATATCATTTTCTAGCACACACATTGTTATTACCTTG [CACACA_site902],10.2
2,TTTCTAAAAATAAGAACACACACATATAAGCATATA [CACACA_site8714],10
3,TTTTTTTAAATATACACACACATTTATACAGATATA [CACACA_site5811],10.1
4,TATTAGAACATATATGCATGCAATAGATATTCCAAT [TGCATGCA_site297],9.65
5,TATGTATAATTTCATTGTACTTTTGATATTATCATA [XGTACX_site280],9.57
6,TTTAAATATTACATATGTACTTATAAATATATATAT [XGTACX_site1284],9.84
7,AAGGAATAGGCATATACACACAGGTACAGATATATA [CACACA_site4402],10.1
8,AAAAAAAAAATTGAAAGTACAAATATGTATTATATA [XGTACX_site2455],9.7
9,TAATAGTATATAAAAAGTACATAATAAGATATGAAA [XGTACX_site1000],9.81
10,ATTATGTGCCAATACACACACACATATATATATATA [CACACA_site468],10
11,TAAAATATGTCATGTGGTACATGAATAGCTTTTATT [XGTACX_site3809],10.1
12,AAAAAAAAAAAAAACACACAAATCATAAATAAATAT [CACACA_site6362],9.75
13,AATAAAAATAGGAATACGCACACGATGATTAATTTA [CACACA_site1836],10
14,AATTAACCCTAATTTTGTACATATTCCTTTTCTCAT [XGTACX_site46],9.93
15,GTTACTATGATTAATGCATGCAAATACCAAAAAAAA [TGCATGCA_site590],9.61
16,TATACCACACGATATACACACTTGTAGACATCTTTT [CACACA_site6232],9.83
17,TTATATTCTAGAGACACATGCGATTTTTTATTTTAT [TGCATGCA_site649],9.77
18,TGGAATAATCCGCGTACACACATATATATATTAAGA [CACACA_site4253],9.83
19,AATTAATGGCTAAAGGTGCACAATATATATATTACA,9.98
20,AAAAAAAAATTTAAGGGTACATACAAATATATATAT [XGTACX_site5078],9.63
21,TAATACGAATGAGGCACACACCTAGTATACATGCTT [CACACA_site6438],9.88
22,TCCCTTCATCTTTTATGTACTAAAAAATTGAATAAT [XGTACX_site2172],9.41

row,Sequence,gcPBM binding intensity (ln)
1,AATTAAAATTTTTGAAGTACACTCAAAATAAGTTAT [XGTACX_site4490],9.48
2,CTTTTGAACAGTTCATGTACTCAATTTTTTAATAGT [XGTACX_site6498],9.58
3,TAATACCTATGGTATAGTACGTATTATTTTATAGAG [XGTACX_site2078],9.43
4,TTTTTTTTTTTGAAATGTACATTCCAAAAACTGATA [XGTACX_site1495],9.67
5,TATATATATATATATTTTTTTTTTTTATGCACATGG [CACACA_negctrl_site1573],9.41
6,TATTTATAAAAAAATACATGCATTTTTTTTTTTTTT [TGCATGCA_site65],9.36
7,TGTTAATTCTTAAGAATTTCCATAATTTCTTCTTTT [CACACA_negctrl_site1065],9.52
8,TTTGCCATATGACACACACACATGTAAACCCCCTTT [CACACA_site6873],10.2
9,TAATACAAAAACAATGTTCTTTCAAACATAAACATA [CACACA_negctrl_site1628],9.6
10,TATTTTTATTGGTACTGTACCTATTTAGAAATACAT [XGTACX_site6663],9.64
11,ATGATTTCATTTGAGAGTACGTAAAAATAATACGTA [XGTACX_site4958],9.36
12,TTTTAATGATATATGAGTACACATTGTTTTTTATAA [XGTACX_site1072],9.6
13,ATATAATGATGGAAAAGAAAAGAAATAAAAAAAAAA [CACACA_negctrl_site1170],9.59
14,TTGACATATAAGATATGTACTAATACACACACATAT [XGTACX_site1904],10.1
15,AAATAATAAAACAACACACAAATAGTTAAAATAGAA [CACACA_site5007],10.2
16,ACATTCTATATATACACACATACATAATAAAGAAAG [CACACA_site2771],9.93
17,CATATATAGATATATACACACATACATACATACATA [CACACA_site7748],10.1
18,TGCATATGCATTATTTGTACATATGTAGATAATTAT [XGTACX_site6930],9.63
19,AAAAATTACAAATACAAACACACAAATGTTTTTCAT [CACACA_site3551],9.78
20,AATAAAATAAATATATGTACATATATATAACCATTA [XGTACX_site5549],9.84
21,AGAGAAAGAAGGGAGAAAAAATAAAATAAAATAAAA [GTGCAC_negctrl_site299],9.5
22,AATAAAAAAAAACTCATGCACACAATATTATGAAAA [CACACA_site664],9.99

row,Sequence,gcPBM binding intensity (ln)
1,TATATATATATATATATTTTAAATGATATAAATGGT [TGCATGCA_negctrl_site152],9.63
2,AATTAATTAAATTAATGTACACATATATTTGTATTC [XGTACX_site2341],9.68
3,CCACATTAAAAAAAAACACACATATATTATATATAT [CACACA_site1155],9.85
4,AATACATGAATATGTAGTACAGAAAAAAAAAATATA [XGTACX_site1945],9.78
5,AAAATGACATAATGGGGAATAGACATATACATAAAT [CACACA_negctrl_site1669],9.81
6,GTTACAGAGAATGTTGTGCACATATCAATAATATAT [GTGCAC_site9671],9.74
7,TATAAACCATAATTAACACACAAAATAAGTTACATA [CACACA_site3227],9.89
8,ATAATAATAAAAATTATACATAAGTATATGCACATA [XGTACX_negctrl_site583],9.63
9,TTTTGCTTTTTTTTTCTTTTTTGTTTTATATATATT [CACACA_negctrl_site103],9.89
10,ACATATGGTATTTAAACACACAAAAAAGAAAGAAAA [CACACA_site991],9.87
11,AAATGGTAAGAAAATAAATAAAGTTCTACCACATAA [CACACA_negctrl_site1542],9.85
12,TAGAAAGAATATAATTGTACAAATGTTGATAGATAA [XGTACX_site7259],9.75
13,ATATATATATATATATATATATATGTTTGATTTTTT [XGTACX_negctrl_site98],9.48
14,ATTTTTCTTTTATTAACACACATATAAATAAATACA [CACACA_site2876],9.55
15,TGGGCGTCATAATGAACACACAATTATATTATGACT [CACACA_site3910],9.59
16,TTACACAAATAGCTGCATTTATAAAATACAATTAAA [CACACA_negctrl_site241],9.51
17,TTTTGTCAATTTTAGATTTTTCAATACATGGATATT [CACACA_negctrl_site319],9.57
18,ATATATATATATTTATGTACGAATATGTTTAATTTA [XGTACX_site3986],9.57
19,ATATATATAATAATATGTACGGAAAAAGCTTAAGCT [XGTACX_site5661],9.78
20,AAATATATATATTTACGTACATATATACAAATAGAG [XGTACX_site6067],9.72
21,TTATAAAGAACACAGACACACAAAGAAAGAACCAAT [CACACA_site4175],10.2
22,CACAAATAAATACATACACACATATATACTCATATA [CACACA_site4379],9.99

row,Sequence,gcPBM binding intensity (ln)
1,TGTCACTACAAATGAGTGCATTAAATAATTTGGAAA,9.41
2,ATATGCAAAGAGTATAATCAAAATGTAAATAAATAA [GTGCAC_negctrl_site141],9.72
3,AATATTATTTATATTTGTACACAGTAATATAAAATA [XGTACX_site4884],9.57
4,CCATAGATATTTTATACACACATATAATATATTAAG [CACACA_site4363],9.71
5,AAAAATAAAGAAACAGGTACGCATATATTAAGATAT [XGTACX_site8097],9.98
6,AATATATTCCACATGTGTACATATATATATATATAT [XGTACX_site8006],10.1
7,TTTCCTTCTACAAAAAATTTTATCAAGAGGAAGTAC [CACACA_negctrl_site926],9.29
8,AATATATATCATCACACACACATACATAAATATATA [CACACA_site184],10.3
9,AGTTTATTTGTAAAAAGTACATATTTAAGAAAACTT [XGTACX_site2318],9.5
10,TTCTAACTCTAACAAGTGCAATATATATACATAATA,9.33
11,AAATTTGGCAAACACACACACACACCCACACCCACA [CACACA_site8095],11.4
12,GAAAATAAAAAAAATAAAAAAAATAAAAAAAATTAT [XGTACX_negctrl_site443],9.48
13,TAAATATCTAAAGACTGTACAATTAAATATAAACAT [XGTACX_site1450],9.62
14,TTTTGTAACCTATGCACGCACACAAGAAAAAAACAA [CACACA_site3776],9.84
15,TATATTATATATATGTGTACATATAAATGTAACAAA [XGTACX_site5025],9.58
16,AATACATATAAAAGTACACACACACCCATATATATA [CACACA_site8220],10.5
17,ATAGAATACATATATGAACACACAGAGTTTTAAAAA [CACACA_site8879],9.9
18,TTTTTTTTTTGATGTTGTACATATATACTATATAAT [XGTACX_site1332],9.65
19,GTTCATATCTTTTGAGCACACATATATATATATAAA [CACACA_site9099],9.76
20,ATAAGTAAAAATAAAAAAAAAATATATATATATATA [CACACA_negctrl_site1816],9.59
21,ATGATTATAATTTAAAATATTTTACATAACCATTTC [GTGCAC_negctrl_site297],9.52
22,TTTAGCTATTATAGCTGTACAATGATAAAATAAATT [XGTACX_site6318],9.29
